“And” between values parts separate entries of the source, which are not always exact repeats. Identical values can stand only once. Screen size: about 220,000 compounds; about 16,000 (7.3%) were called active. The inconclusive results got no clear call from the source; some entries with a clear call stand among them for comparison. The call rests on the fitted dose curve; in most records, active means well fitted inhibition curve with a large enough effect (not every such curve was filed as active); inconclusive means small, poorly fitted or top-dose-only effect, or another doubt; inactive means no such curve, though single readings can be large or run the other way. Potencies of inconclusive entries are doubtful fits and often do not repeat.
Target: Aldehyde dehydrogenase 1A1 (Homo sapiens) (UniProt P00352)
Chain of UniProt P00352 (P00352 whole entry, looked up): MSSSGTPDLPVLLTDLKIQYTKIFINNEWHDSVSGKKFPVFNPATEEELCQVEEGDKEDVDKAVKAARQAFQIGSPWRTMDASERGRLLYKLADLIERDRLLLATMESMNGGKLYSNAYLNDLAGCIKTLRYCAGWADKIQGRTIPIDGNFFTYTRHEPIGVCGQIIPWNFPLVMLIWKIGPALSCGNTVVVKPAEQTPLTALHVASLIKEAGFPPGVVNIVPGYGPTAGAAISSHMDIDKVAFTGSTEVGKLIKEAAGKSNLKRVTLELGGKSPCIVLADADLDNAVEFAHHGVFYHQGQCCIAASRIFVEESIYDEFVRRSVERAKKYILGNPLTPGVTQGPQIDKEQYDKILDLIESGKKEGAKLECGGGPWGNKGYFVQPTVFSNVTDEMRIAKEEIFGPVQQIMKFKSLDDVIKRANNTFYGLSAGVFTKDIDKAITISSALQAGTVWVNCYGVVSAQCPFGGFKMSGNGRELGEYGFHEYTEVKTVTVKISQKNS
Assay: qHTS Assay for Inhibitors of Aldehyde Dehydrogenase 1 (ALDH1A1);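 on activity, negative = inhibition: plate controls were no enzyme wells and a reference inhibitor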
Conditions: Purified ALDH1A1, NADH fluorescence, propionaldehyde substrate; series mostly up to 75.3 µM
Potency means the concentration at half of the fitted maximal effect; tags describe the fitted curve by direction and shape.

SMILES | Potency | activity, negative = inhibition
CN(C)c1ccc(/C=C/c2cc[n+](C)c3ccccc23)cc1 | inactive | 
CCOc1ccc(/C=C2/C(=O)NC(=O)N(CCc3ccc(F)cc3)C2=O)cc1 | active: 1.41 µM | 
CCCOC(=O)c1c(N)n(Cc2cccs2)c2nc3ccccc3nc12 | inconclusive: 25.1 µM [inhibitor, partial curve] | 
c1cncc(CNC2CCCC2)c1 | inconclusive: 37.7 µM [inhibitor, single point] | 
NC(CCl)=N[C@H]1CN2CCC1CC2 | inconclusive: 6.31 µM [inhibitor, single point] | 
CC(C)CCOC(=O)c1c(N)n(CC2CCCO2)c2nc3ccccc3nc12 (configuration not stated) | inconclusive: 31.6 µM [inhibitor, partial curve] | 
CCc1ccccc1N1C(=O)/C(=C/c2ccc(N3CCN(C)CC3)o2)C(=O)NC1=S | inconclusive: 39.8 µM [inhibitor, single point] | 
CN1C2C=C(N(C(=O)c3ccc(Cl)cc3)c3ccccc3)CC1CC2 (configuration not stated) | inactive | 
Cc1cc(NC(=O)CCl)no1 | active: 12.6 µM | 
CC(C)n1c(/C=C\[C@@H](O)C[C@@H](O)CC(=O)O)c(-c2ccc(F)cc2)c2ccccc21 | inconclusive: 17.8 µM [inhibitor, single point] | 
O=Cc1cn(Cc2ccc([N+](=O)[O-])cc2)c2ccccc12 | active: 2.24 µM | 
CNC(=O)O/N=C(/C)SC | inactive | 
CCC(=NCC1CCCO1)c1c(O)n(Cc2ccccc2)c(=O)[nH]c1=O (configuration not stated) | inconclusive: 39.8 µM [inhibitor, single point] | 
CC(=NCC1CCCO1)c1c(O)n(-c2ccc(Cl)cc2)c(=O)[nH]c1=O (configuration not stated) | inconclusive: 39.8 µM [inhibitor, single point] | 
CCC(CC)N1CCN(C(=O)Cc2ccccc2)CC1 | inconclusive: 39.8 µM [inhibitor, single point] | 
O=C1N(c2ccc(Cl)cc2)C(c2cccnc2)N2CCCN12 (configuration not stated) | inactive | 
O=C(Nc1cccc(Cl)c1)OC1CN2CCC1CC2 (configuration not stated) | inactive | 
Cc1ccc2oc(-c3ccccc3)cc(=O)c2c1 | inconclusive: 39.8 µM [inhibitor, single point] | 
CC(C)C[C@H](NC(=O)[C@H](Cc1ccccc1)NC(=O)CNC(=O)[C@H](CS)N(C(=O)[C@@H](N)Cc1ccc(O)cc1)C(C)(C)C)C(=O)N([C@H](C(=O)O)[C@H](C)O)C(C)(C)C | inactive | 
O=C1NC(=O)C2=Cc3ccc(O)cc3OC2(O)N1 (configuration not stated) | inconclusive: 39.8 µM [inhibitor, single point] | 
CC(=O)OC(C)(C)/C=C/C(=O)[C@](C)(O)[C@H]1[C@H](O)C[C@@]2(C)[C@@H]3CC=C4[C@H](C[C@H](O)C(=O)C4(C)C)[C@]3(C)C(=O)C[C@]12C | inactive | 
CC(/C=C(\C)Nc1ccccc1)=Nc1ccccc1 | active: 25.1 µM | 
COc1ccc(Cn2c(O)c(C=NCCN3CCOCC3)c(=O)[nH]c2=O)cc1 | inconclusive: 39.8 µM [inhibitor, single point] | 
COC(=O)C(O)(c1ccc(NC(=S)NC(=O)c2ccc(Cl)cc2Cl)c(C)c1)C(F)(F)F (configuration not stated) | inconclusive: 39.8 µM [inhibitor, single point] | 

SMILES | Potency | activity, negative = inhibition
O=[N+]([O-])c1c(Cl)c(Cl)cc(Cl)c1Cl | inactive | 
CCN(CC)CCOC(=O)c1ccc(N=Cc2c(O)[nH]c(=O)[nH]c2=O)cc1 | inactive | 
CCC1=C(C[C@H]2NCCc3cc(OC)c(OC)cc32)C[C@H]2c3ccccc3CCN2C1 |  | inactive: 15.8% [at 13.5 µM]
Cc1cc(C)n(-c2ccc(NN=C(C#N)C#N)cc2)n1 | inconclusive: 22.4 µM [inhibitor, partial curve] | 
CCN(CC)CCN=Cc1c(O)n(CCC2=CCCCC2)c(=O)[nH]c1=O | inconclusive: 44.7 µM [inhibitor, single point] | 
CCCn1cc(C(=O)O)cn1 | inactive | 
COc1ccc(NC(=O)N2CCCC3(CCN(C(=O)Oc4ccccc4)CC3)C2)cc1 | inconclusive: 39.8 µM [inhibitor, single point] | 
Cn1cccc1/C=C1/C(=O)NC(=O)N(Cc2ccccc2)C1=O | inconclusive: 15.8 µM [inhibitor, single point] | 
CCOC(=O)CC1=C(C(=O)OCC)C2(C(=O)N1)C(C(=O)OC)=C(N)Oc1ccccc12 (configuration not stated) | inactive | 
Oc1ccccc1/C=N/NP(=S)(c1ccccc1)c1ccccc1 | inconclusive: 28.2 µM [inhibitor, single point] | 
Cc1ccc(N2C(=O)NC(=O)/C(=C/c3cnn(-c4ccc(C)cc4)c3)C2=O)cc1 | active: 2.51 µM | 
N#CC(=Cc1ccc(O)c(O)c1)C(N)=S | active: 0.794 µM | 
C1CCc2nnnn2CC1 | inactive | 
CCc1cc2c(N3CCN(C)CC3)ncnc2s1 | inactive | 
c1cncc(CNc2cc(-c3ccc4c(c3)OCO4)ncn2)c1 | inconclusive: 25.1 µM [inhibitor, partial curve] | 
Cc1onc(-c2ccccc2Cl)c1C(=O)OCC(=O)c1ccc2c(c1)OCCO2 | inconclusive: 31.6 µM [inhibitor, partial curve] | 
COc1cc2c(cc1OC)-c1c(OC)c(OC)c(C=O)c3c1[C@H](C2)N(C)CC3 | inconclusive: 35.5 µM [inhibitor, single point] | 
O=C1c2ccccc2-c2c1nc1c([n+]2[O-])CCCC1 | inconclusive: 3.98 µM [inhibitor, single point] | 
COc1cc2c(cc1OC)-c1c(O)c(OC)cc3c1[C@H](C2)N(C)CC3 | inconclusive: 28.2 µM [inhibitor, partial curve] | 
O=C1CC(N2CC=C(c3ccccc3)CC2)C(=O)N1c1ccc(F)cc1 (configuration not stated) | inconclusive: 25.1 µM [inhibitor, single point] | 
S=C1Nc2ccccc2Sc2ccccc21 | active: 10 µM | 
Fc1ccc2c(c1)nnn2C1CCN(Cc2ccccc2)CC1 | inconclusive: 39.8 µM [inhibitor, single point] | 
O=C(Cn1nc(-c2ccccc2)ccc1=O)N1CCC2(CC1)OCCO2 | inconclusive: 44.7 µM [inhibitor, single point] | 
CC/C(=N\Nc1ccccc1)c1c(O)n(-c2ccc(OC)cc2)c(=O)[nH]c1=O | inconclusive: 44.7 µM [inhibitor, single point] | 

SMILES | Potency | activity, negative = inhibition
CCOC(=O)c1ccc(N2C(=O)CC(N3CC=C(c4ccc(F)cc4)CC3)C2=O)cc1 (configuration not stated) | active: 3.55 µM | 
CCOC(=O)CSCCOc1ccc(C=C2C(=O)NC(=O)NC2=O)cc1OC | active: 12.6 µM | 
CN1C(=O)C(=Cc2ccc(N3CCCCCC3)o2)C(=O)N(C)C1=S | inconclusive: 17.8 µM [inhibitor, partial curve] | 
CCOC(=O)c1ccc(NC(=O)C2C3C=CC(O3)C2C(=O)O)cc1 (configuration not stated) | active: 10 µM | 
Cc1ccc2c(CN3CC=C(c4ccccc4)CC3)cc(=O)oc2c1C | inconclusive: 39.8 µM [inhibitor, single point] | 
O=C(O)c1ccccc1O | inconclusive: 31.6 µM [inhibitor, partial curve] and inconclusive: 39.8 µM [inhibitor, single point] | 
O=C(COc1ccc2ccccc2c1)N1CCN(Cc2c[nH]c3ccccc23)CC1 | inconclusive: 39.8 µM [inhibitor, single point] | 
CCCCn1c(O)c(C(CC)=NCc2cccnc2)c(=O)[nH]c1=O | inactive | 
O=[N+]([O-])c1cc(-c2ccc([As](=O)(O)O)cc2)ccc1[As](=O)(O)O | inconclusive: 39.8 µM [inhibitor, single point] | 
COc1ccccc1N | inconclusive: 44.7 µM [inhibitor, single point] | 
O=c1[nH]c(=S)n(Cc2ccc(F)cc2)c(O)c1/C=N/N1CCCCC1 | inconclusive: 25.1 µM [inhibitor, partial curve, poor fit] | 
COC(=O)C(O)(c1ccc(N(C)C(=O)c2cccs2)cc1)C(F)(F)F (configuration not stated) | inactive | 
CN1CCN(C(=S)SCC(=O)Nc2ccc(Cl)cc2C(=O)c2ccccc2)CC1 | inconclusive: 35.5 µM [inhibitor, single point] | 
c1cc2c(cc1[C@H]1OC[C@@H]3[C@H]1CO[C@H]3c1ccc3c(c1)OCO3)OCO2 | inactive | 
COc1ccc(C=O)cc1OC | active: 11.2 µM | 
O=C(Nc1ccc(F)cc1)c1c(O)c2c(n(Cc3ccccc3)c1=O)CCCC2 | inconclusive: 25.1 µM [inhibitor, single point] | 
CN(N=O)c1ccc(O)c(O)c1 | active: 15.8 µM | 
CC(=NCCN1CCOCC1)c1c(O)n(C2CCCCC2)c(=O)[nH]c1=O | active: 14.1 µM | 
O=C(O)c1cc(Cl)ccc1Cl | inconclusive: 8.91 µM [inhibitor, single point] | 
CN1C(=O)NC(c2cccc(O)c2)C(C(=O)c2cccs2)C1(O)C(F)(F)F (configuration not stated) | active: 0.794 µM | 
CC1=NCCc2c1[nH]c1cc(O)ccc21 | inconclusive: 11.2 µM [inhibitor, partial curve] and inconclusive: 31.6 µM [inhibitor, partial curve] and inconclusive: 35.5 µM [inhibitor, partial curve] | 
COP(=O)(OC)c1nc(-c2ccccc2)oc1NCc1ccccc1 | inconclusive: 28.2 µM [inhibitor, partial curve] | 
CC1(C)C(C(=O)NCc2ccco2)C1(C)C | inconclusive: 39.8 µM [inhibitor, single point] | 
O=[N+]([O-])c1ccc(N2CCNCC2)cc1Sc1ccccn1 | inconclusive: 39.8 µM [inhibitor, single point] | 

— PubChem BioAssay AID1030 (National Center for Advancing Translational Sciences (NCATS), 2008)
